# Assay results as given in the supplement of paper PMC10681739.
# ± gives the standard deviation of the averaged measurements. In all, about 4,000 sequences were measured (“arbitrary fluorescence units”: median about 830, highest 2% from about 6,500 on). Most of the strongest results are missing from this list.
# Molecular target: RUNX1 (UniProt Q01196)
# Test: RUNX1 binding intensity (PBM fluorescence), RUNX1 alone (arbitrary fluorescence units); higher = stronger binding
# Settings: RUNX1 concentration 2 nM; ETS1 concentration 0 nM
# Method: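 gcPBM on 36-bp genomic-derived probes (partner site mutated) containing one RUNX1 site and no ETS1 site. Recombinant human RUNX1 (2 nM) was incubated alone or with ETS1 (25 nM) and detected by anti-RUNX1 antibody fluorescence. Values are medians over 4 replicate spots (not normalised). The probes sit in constant array flanks that are not printed.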
# 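Further: Full-length recombinant human RUNX1 bound to double-stranded DNA microarray spots, detected with an Alexa488-labelled secondary antibody after the anti-RUNX1 primary, read as scanned spot fluorescence.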
# Sequence of UniProt Q01196 (Q01196 whole entry): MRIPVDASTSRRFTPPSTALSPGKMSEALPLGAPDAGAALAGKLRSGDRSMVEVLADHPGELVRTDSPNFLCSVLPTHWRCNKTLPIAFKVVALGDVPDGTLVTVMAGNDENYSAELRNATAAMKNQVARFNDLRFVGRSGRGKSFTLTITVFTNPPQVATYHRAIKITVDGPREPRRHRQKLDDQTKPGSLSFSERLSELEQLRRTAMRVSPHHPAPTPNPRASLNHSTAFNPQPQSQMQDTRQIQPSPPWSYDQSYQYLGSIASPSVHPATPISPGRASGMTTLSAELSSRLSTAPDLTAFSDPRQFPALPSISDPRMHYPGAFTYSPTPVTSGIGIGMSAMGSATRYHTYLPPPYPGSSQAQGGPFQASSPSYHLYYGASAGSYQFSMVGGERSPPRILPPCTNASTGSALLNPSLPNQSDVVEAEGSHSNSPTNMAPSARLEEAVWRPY
row,Sequence,RUNX1 binding intensity
1,CGGGCCCGCAGATATCACACCCACCCGAAAGTCCTC,938
2,CCTTTGTTGTGGTTTTTGCAGAAAGAGAAGGGTTAG,10600 ± 540
3,GAGTCTTCCTTGCGCGGCCCGGGCGCGGTTCTGGCT,736
4,ACCAGCCCAGCAAGCATCTGCGGTTCAAGTGGCCAC,1130
5,TGCCGCGGACACCCAGCCAGCGGCAGTGCGGTTAAC,1030
6,GAGAAGGCAACCGCGAAAAGGAGGCGGCAACGCCTC,991
7,GAAGAGACTCCCGCAACCTTGGCCGTCTCCCCTGAT,868
8,GCTCGCCGCGCGGTCGACAACCCCATCATGCGCTCG,1000
9,TCCACACCCTGCTCCTCGGGTTTGCGGCGAGGACTC,994
10,CTCATGCACCGCCCGCACGTCCCAGGCTGCGCTGCA,902
11,GCCCTCGGCACCCACATTCTATCAGGCTAACCAGCT,991
12,AGCGTTGTCTTACGGCCTCAACCACTCAGCGACCGG,869
13,AGCGTTTCGTGCCTGTCTGGGGCTGACAAACCACAA,866
14,GGCGGGGCATTCGGCAGCACCGCCTGCGGGCGCCCG,734
15,GCTCCCGCGGTGGGGATGCTGTCTCCGTCCTGGATG,765
16,GGTGGAGCCCTGGGCCGCATAAGGAACGAACTAGTT,687
17,TAGTCCGTCAGGGAACAGCGCAAAAGGGACCGCATG,645
18,GCAAGACCCCGCATTAACATCTCGGGAACGGACAGC,777
19,TCCGCCGCAACCCGACTGGGAGGTGGTGGAACGACT,740
20,GGATGGACGGGGGCTGTTTGCAGATAACCACAGCCT,898
21,GGCACAGCTTGTGGCCAGAGGGAGCAAGAGAGAGGA,765
22,TGACTGCTCACTGCGGGCGAGGGGAACTGGAGTGCA,687
23,AGGTGGGAGGACGTTCCTACCCCGGCGCGGTGTGCA,739
24,CATCTACTGAGCAAGTGTAAGCCACAATAAGAAGCC,967
25,AAGTCCCACAATGCACTCCTCCACAGCAAGTTCCCA,1210
26,AGGGGAGGCCTGTGGTTCTCACTTGCTGGCAGAGCT,713
27,CGCCTGCGGGCTGGTCCCCATCCTTGCTCTTAGACC,1050

row,Sequence,RUNX1 binding intensity
1,TGATGTGGTCATAACACCCTCCCCTCAGCTCCCTTA,1120
2,GAGCAGTGTAGAGAGGTGGTTATCAGTGGTCTTGAT,774
3,GTGTGGTGCTGTGGTGCAGCCCCAGGCAACACGTGC,782
4,GGGGCAGCTTACGGCAGGAGAGCCCGCATTCCCGGC,1010
5,GAGAAGAACCACAATTCAAAGTGATGGGGGAACTGG,894
6,CCCGAGCGCGCCGCAGACCGGAGGCGAGAACTGGGC,837
7,ACAGGTTCAGCAAGCGGCCGTGGTTGTTAGTGGTGT,734.5 ± 5.6
8,GGGGCACCACACAAACCATGCCCTTTGTCTTCATGC,843
9,AGAAAGCAGCAAAGTGACGTCATTTTGTGGCTTCAG,719
10,GTGACAACCGCCTCCCCAGCCACACCCTGTTTGACT,1050
11,GAGGCCGCACCCGCACCGAGCTCCCGTCCTGCGCTC,909
12,GTCCCACCACAGGCCTCCAGCCACACCCTGGGCCTC,1120
13,ATATCCCTGTGGGTGAAAAACATGCCGGGAGTGAAA,781
14,CTCAGGAATGCGGCAGTGCTCTGTGGGCACCCACCA,793
15,AAATGTGGCCAGATGCTCTGTGGGCGGGCGGCAGCT,726
16,TTGCTCGGCTCCCTGGAGCTGTGGTCCGTGTGGGCT,679
17,CATCATGAGAACCACACTCACCGAATCCAGCACCCA,946
18,CAAGCTGGCAGGGAGCGCGGTGCAACCACAAGAGTC,781
19,ATCCAGGACGGTGCACCGACCCGAGGCACACCGCAC,773
20,CAGTGACAGCAAGTGGTTCAGCGGTTGTTTAGGGCT,742
21,AGCAACCCACTACCCGGCGCCTGATTCACCTCCCTC,1090
22,CCCACCCTCGCCTGAAGCCGAGCGGTTTCTACATCA,1010
23,GGCAAAACCAATCGGCGGCCACACGGCAGTGGGCGG,1420
24,GCCCAGGCAGCAAGCCAGGCGCCCACAGGTTGGCAG,671
25,CCCCATCCTTGACCACAGGACCAGGCAGTCAGGGCA,1610
26,CGGGTCCTCGCGGACCGCACGGATCCAGCTGACGGC,705
27,CCAACCACAGCTCGGCAGGCGCCACATGAAGGGCCC,909

row,Sequence,RUNX1 binding intensity
1,GGTCCGGGTGTATAAAGCGCGGCCCCCTGCGGGGAG,698
2,GGAAAAAAACCACCCATGCTCCTGGACCTCCCCTTC,945
3,ATGAAAGGACCACAAAGCCTCAGACAGAAAGCTGCA,869
4,ATGCTGTGGGTCCACTCCCTGCCACCTGCTTGCTGC,740
5,TTGCCATTCCAGGCAATGAGCTTACCACATTGACTG,855
6,CCCCCTGCGGTACAAATGTCCCGTAAGCCGCGAACC,1390
7,CTCACCGCGGGCTAGGGAGCGTGGGATTCTGGACTG,752
8,CACTGCATTGTGGGAACGCGGAGCGCAAGCGAAGGG,768
9,GGTTACTAGACCACAGCTTTTGTCCAGGGTGTGGCT,1120
10,ACTTCCACCGCTTTCGGTGCCTGTTGCCGCCTCCAA,980
11,GTCACTGTGGTATTTACTTTAGCTTTCTGTTCATCC,1460
12,GGAGGGGCTGGCTGGAAGTGAACCGCAGAGCACGCT,1090
13,ACCTGGTCTTGTGGCCCCCACCCAGGCAATGACTCA,807
14,CCGATTTCCCCGGGCGTGGTGAGACCGCGCTTCGTC,785
15,TCCCCACACTCCCGGCCCCGCCCGCACAGCCGCACC,1200
16,AAATGTGTGTGGTTTCAGAACGTCCTCCCCACCTCC,1300
17,TCTAAATCACTTGCTGTTACAGAAACCACAGGCCTG,1240
18,CTACTTTTCGGTCAACGCGGCCTGCGGTACCACCTC,994
19,ACAGAAAGAAGCCGCAGGCCAAGCGGCTGTCAGCGG,846
20,TTTCTTTCTGTTTGCATCACCCCAAACCCACTATCA,1830
21,GGTCTAAGAGCAAGGATGGGGACCAGCCCGCAGGCG,694
22,TCCAGCCTGATTCTCTCGGACTTTTCAACCGCCCGG,935
23,TTGCAAGAAACCGCTGGCCATGGCACGTCCCAGTGT,766
24,GTTTCAGTATTTGCTGGTGCGGCGTACCACACCTAC,917
25,CTCCCAGCCGGGCTGAACCGAGACCGCTTCGTCCCC,1050
26,CCATCGGCAGTTTTGGGTTTTGCGCCCACAGCCGCC,810
